Results: the BET-seq Pho4 binding data (Le et al. 2018)
The list shows a part of the results. These are noisy estimates, calculated here from bound and input reads.

molecular target: T1, Pho4 (S. cerevisiae) (UniProt P07270); assay: relative binding free energy (BET-seq); higher = weaker binding; details: reference: library average
T1 sequence: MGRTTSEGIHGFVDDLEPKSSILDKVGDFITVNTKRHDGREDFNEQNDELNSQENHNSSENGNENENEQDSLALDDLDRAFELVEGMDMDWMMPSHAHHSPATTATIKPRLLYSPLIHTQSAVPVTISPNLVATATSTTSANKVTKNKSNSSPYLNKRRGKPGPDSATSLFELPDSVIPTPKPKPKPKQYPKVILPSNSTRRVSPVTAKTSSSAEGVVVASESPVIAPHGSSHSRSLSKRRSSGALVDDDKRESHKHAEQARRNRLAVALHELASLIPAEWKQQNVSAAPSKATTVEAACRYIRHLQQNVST

Sequence | relative binding free energy
AGCGGCACGTGTAAGG | -0.18 kcal/mol
GTGAGCACGTGGGCGG | -0.14 kcal/mol
TTTTGCACGTGCGGCA | 0.01 kcal/mol
GATTTCACGTGGCGGG | 0.3 kcal/mol
AATAGCACGTGGGCTG | -0.27 kcal/mol
AGCTTCACGTGGTTGC | 0.15 kcal/mol
TGTGGCACGTGGGCCG | -0.31 kcal/mol
GGTGTCACGTGTGTTC | 0.11 kcal/mol
ATAAACACGTGTGGTG | 0 kcal/mol
CAATTCACGTGGTAGT | 0.23 kcal/mol
AGTTGCACGTGGGTCA | -0.15 kcal/mol
TAATGCACGTGATTTT | 0.03 kcal/mol
CGGATCACGTGGCGGA | 0.37 kcal/mol
TTGTTCACGTGTTGGA | 0.23 kcal/mol
ATTGACACGTGAAGGA | 0.22 kcal/mol
TCTGTCACGTGGTAGA | 0.01 kcal/mol
CTCGACACGTGGGGGG | -0.13 kcal/mol
TGGCGCACGTGTAGGC | 0.05 kcal/mol
GAATTCACGTGAGAGG | 0.42 kcal/mol
TTTTTCACGTGGTACA | 0.15 kcal/mol
ATGCGCACGTGCTTGG | -0.22 kcal/mol
TATTACACGTGAAATG | 0.43 kcal/mol
GGGGACACGTGCGTGA | -0.07 kcal/mol

Sequence | relative binding free energy
GTCTGCACGTGTATTT | 0 kcal/mol
ATGTGCACGTGGATGG | -0.03 kcal/mol
TATTGCACGTGTATGT | -0.03 kcal/mol
TGGTGCACGTGTACGA | -0.02 kcal/mol
GGTTTCACGTGAATGC | 0.5 kcal/mol
TTTTACACGTGCATGG | 0.1 kcal/mol
GGTATCACGTGGTAAG | 0.37 kcal/mol
ATCTTCACGTGTGGCA | 0.24 kcal/mol
AGTGGCACGTGATTTC | 0.14 kcal/mol
TGTTGCACGTGTTTGT | 0.01 kcal/mol
TCATGCACGTGTGGTG | 0.02 kcal/mol
GAGGACACGTGTACGG | 0.17 kcal/mol
GTTAACACGTGGATGG | 0.14 kcal/mol
GGAGTCACGTGAACTT | 0.38 kcal/mol
AGGCACACGTGTTAGG | 0.04 kcal/mol
GCAGTCACGTGGCGTT | 0.12 kcal/mol
TTAATCACGTGATATT | 0.28 kcal/mol
GTTCTCACGTGAATGG | 0.35 kcal/mol
TGATACACGTGGAGGA | 0.07 kcal/mol
TATTGCACGTGGTAAT | -0.05 kcal/mol
TTGATCACGTGTGCCT | 0.06 kcal/mol
TAGGGCACGTGTTATC | -0.12 kcal/mol
CTGCGCACGTGGGGAG | -0.27 kcal/mol

Sequence | relative binding free energy
GTGTACACGTGCGATG | -0.04 kcal/mol
TCTGACACGTGGTGTT | -0.07 kcal/mol
TTTTACACGTGTTTAC | 0.22 kcal/mol
TTATTCACGTGTAAAT | 0.29 kcal/mol
TGGAGCACGTGCGAGT | 0.02 kcal/mol
CTTGACACGTGTGGAG | -0.02 kcal/mol
AGATACACGTGGTGTA | -0.04 kcal/mol
TTCGGCACGTGCGTGA | -0.1 kcal/mol
AGGAACACGTGTTGAT | 0.07 kcal/mol
CGTGCCACGTGGGGGC | -0.22 kcal/mol
TCGAGCACGTGGATGG | -0.13 kcal/mol
CGAAACACGTGGTGTG | -0.12 kcal/mol
AGTGTCACGTGAATTG | 0.2 kcal/mol
TTTCTCACGTGGAGTA | 0.2 kcal/mol
TTGGACACGTGTGGGG | 0.19 kcal/mol
CGAGTCACGTGTGGGA | 0.2 kcal/mol
TTTCACACGTGAGGAT | 0.35 kcal/mol
TACAGCACGTGTGTGT | -0.07 kcal/mol
CGAGGCACGTGGGTGC | -0.42 kcal/mol
TATGACACGTGTTGGT | 0.08 kcal/mol
TTGCGCACGTGGTAGT | -0.17 kcal/mol
TGAATCACGTGGTTAT | 0.2 kcal/mol
GGCGGCACGTGAGCGG | 0.1 kcal/mol

Sequence | relative binding free energy
TTCTTCACGTGAAGGC | 0.44 kcal/mol
GTTTGCACGTGCGGCT | 0.04 kcal/mol
CCTGTCACGTGGGTAG | -0.04 kcal/mol
TTGTGCACGTGGGTAC | -0.03 kcal/mol
TTGAACACGTGCAGGT | -0.1 kcal/mol
GTTTTCACGTGGCGTG | 0.19 kcal/mol
TTTGACACGTGTACGA | 0.11 kcal/mol
GGCGGCACGTGGGCGA | -0.16 kcal/mol
GTGCGCACGTGTAAAG | 0.15 kcal/mol
GTTATCACGTGTTTAC | 0.17 kcal/mol
GGTTACACGTGTTACA | 0.31 kcal/mol
TCGAGCACGTGGGATT | -0.08 kcal/mol
GGGGACACGTGATTCG | 0.18 kcal/mol
TTAAACACGTGGGTTA | -0.13 kcal/mol
AGTTGCACGTGATCGG | 0.03 kcal/mol
TTTCACACGTGTGTGG | 0.12 kcal/mol
AAAGACACGTGGGCGT | -0.12 kcal/mol
TTGCTCACGTGGAAGG | 0.29 kcal/mol
TTTAGCACGTGAGTAA | 0.04 kcal/mol
AAATGCACGTGGTGTG | -0.18 kcal/mol
TGTCTCACGTGTGTGT | 0.34 kcal/mol
TGAGGCACGTGCTATT | -0.09 kcal/mol
AAGGTCACGTGCGTTG | 0.04 kcal/mol

Sequence | relative binding free energy
TGTTGCACGTGAATTA | 0.23 kcal/mol
ATTTGCACGTGTCGCG | 0.04 kcal/mol
TTGTTCACGTGTCGAG | 0.36 kcal/mol
GTATGCACGTGGAGTA | -0.02 kcal/mol
TGTTACACGTGGTATG | 0.07 kcal/mol
GCTTCCACGTGGGGGG | 0.01 kcal/mol
GATATCACGTGGTGTC | 0.1 kcal/mol
AGATGCACGTGGCGAT | 0.09 kcal/mol
GGGGACACGTGGAAAA | 0.22 kcal/mol
GAAAGCACGTGATAGT | 0.15 kcal/mol
TGGTGCACGTGGTGTC | -0.01 kcal/mol
TTTGTCACGTGGATAC | 0.2 kcal/mol
GTGGTCACGTGCAGGC | -0.02 kcal/mol
TGATTCACGTGTGACG | 0.23 kcal/mol
TTAAGCACGTGCGGTG | -0.2 kcal/mol
ATAATCACGTGAGTAT | 0.22 kcal/mol
GAGTTCACGTGCGCGT | 0.25 kcal/mol
GTGTTCACGTGCTGCT | 0.06 kcal/mol
AGTTCCACGTGCGGTT | 0.05 kcal/mol
TAATGCACGTGGGGTT | -0.13 kcal/mol
TTTGACACGTGGATGC | -0.1 kcal/mol
AAGTACACGTGGTGAT | -0.06 kcal/mol
AGTCTCACGTGGAGTA | 0.29 kcal/mol
